{"source": "patent US20220249679A1", "about": "(Mitsubishi Tanabe Pharma Corporation, priority 2018, published 2022)", "molecules": {"B1": {"name": "F6 cks-rep (hF6): humanized anti-CD138 IgG1/kappa antibody; VH SEQ ID NO:90, VL SEQ ID NO:41; heavy chain SEQ ID NO:93, light chain SEQ ID NO:44 (antibody)", "heavy": "QVQLVQSGAEVVKPGASVKLSCKASGYTFTSYYLYWVKKAPGQGLDWIGEIYPRSGGTNINEKFLSRVTLTADTSTSTAYLELSSLTSEDTAVYYCTRSLLYWGQGTTLTVSS[letters of human IgG1 constant region left out]", "light": "DVVMTQTPLSLSVTPGQPASISCKSSQSLLASDGKTYLNWLLQRPGQSPKRLIYLVSKLDSGVPNRFSGSGSGTDFTLQISRVEAEDVGLYYCWQGAHFPFTFGSGTKLEIKRTVAAPSVFIFPPSDEQLKSGTASVVCLLNNFYPREAKVQWKVDNALQSGNSQESVTEQDSKDSTYSLSSTLTLSKADYEKHKVYACEVTHQGLSSPVTKSFNRGEC", "modifications": "Humanized Heavy chain; Humanized Light chain variable region"}}, "test": "Size exclusion chromatography (SEC), percent monomer", "type": "physicochemical", "settings": "Table 19, after protein A purification", "protocol": "The antibodies were purified utilizing pH dependent, protein A purification (HiTrap MabSelect SuRe 5 mL). After purification, the antibodies were buffer exchanged into 1× DPBS using zeba spin columns. The recovery and relative stability as determined by size exclusion chromatography (SEC) analysis varied between the humanized antibodies (SEC profiles not shown). The nomenclature sometimes takes the form of hF6 xky-rep where h stands for humanized, F6 stands for F12P16F6-derived, x stands for the first letter of the first procedure used to generate the humanized heavy chain sequence (e.g., x can be a=abb, s=sdr, f=fra, or c=cdr), k stands for kappa light chain, and y stands for the first letter of the first procedure used to generate the humanized light chain sequence (a=abb, s=sdr, f=fra, c=cdr)."}
{"molecule": "B1", "values": [{"measurement": "SEC % Monomer", "result": 99.3, "unit": "%"}]}
